The values below come from PubChem BioAssay (NCI).

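Interpolation was linear, between the two tested concentrations surrounding the appropriate level; five concentrations were tested over 48 hours in 96-well plates. GI50 is the concentration that inhibits growth by half. TGI: total growth inhibition.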 Bounds are passed on as bounds.

The test system of the experiment is NCI-H322M lung. The experiment is described as follows: NCI-60 cell line screen, 48 h.
On to `COC(=O)C1CC(c2ccc(OC)c(OC)c2)OC1=O` (mixture of isomers), for which the TGI was more than 100 µM.

Regarding `C=C(C)C1CC(=O)C(C)=C(O)C1` (stereo not given), the TGI is more than 100 µM.

In turn, `Cc1c(C)c([N+](=O)[O-])c2c(c1N)C(=O)c1ccccc1C2=O` yielded a TGI of more than 100 µM.

As for `C1=CC(=P(c2ccccc2)(c2ccccc2)c2ccccc2)C=C1`, the TGI is 36.4 µM.

Regarding `COc1cc2c(cc1C)NC(=O)/C2=C/c1ccnc2ccccc12`, the GI50 was 33.4 µM and the TGI is more than 50 µM.

With `COC1/C=C/C(C)C(O)CC(O)/C=C/C(C)C(C(C)C(OC)C(C)CCC(=O)C(C)C(C/C=C/N(C)C=O)OC)OC(=O)/C=C/C=C(\C)CC(OC)CC2=CC(=O)O[C@@H](C(C)C(OC)C1)[C@H]2O` (stereo not given in full), the TGI was 0.533 µM.

`Cc1cccc(N2C(=O)/C(=C/C(Cl)=C/c3ccc([N+](=O)[O-])cc3)SC2=S)c1C`: the GI50 was 5.04 µM and the TGI is more than 100 µM.

Consider `NC(N)=N/N=C\c1ccc(OCc2ccccc2)cc1`, for which the GI50 is 2.51 µM and the TGI was 8.31 µM.

In turn, `CCC1(c2ccc(N3C(=O)c4cccc5cc([N+](=O)[O-])cc(c45)C3=O)cc2)CCC(=O)NC1=O` (stereo not given) registered a TGI of more than 100 µM.

The compound `O=c1c(-c2ccc3c(c2)OCO3)coc2c3c(ccc12)OCO3` displayed a TGI of more than 100 µM.

With `COC1(OC)C2(Cl)C3=CCCC=C3C1(Cl)C(Cl)=C2Cl`, the TGI was more than 100 µM.

The compound `COC1(CC[C@@H](C)COC2OC(CO)C(O)C(O)C2O)OC2C[C@H]3[C@@H]4CC[C@H]5C[C@@H](OC6OC(CO)C(OC7OC(CO)C(O)C(O)C7O)C(O)C6OC6OC(C)C(O)C(O)C6O)[C@H](O)C[C@]5(C)[C@H]4CC[C@]3(C)C2[C@@H]1C` (stereo not given in full) came in with a TGI of 3.58 µM.

Take `CC1=NN(C(=O)CC(=O)Nc2cccc(C)c2)C(=O)C1N=Nc1ccc(S(=O)(=O)CCOS(=O)(=O)O)cc1` (stereo not given): the TGI was 36.2 µM.

For the compound `COP(=O)(OC)OCN(C)CC/C=C(\C)CC/C=C(\C)CCC=C(C)C`, the TGI worked out at 30.5 µM.

`O=c1c(Cc2ccc3c(c2)OCO3)nnc2sc(-c3cc(F)c(Cl)cc3Cl)nn12`: the GI50 was 20.5 µM and the TGI was 67.7 µM.

`COc1ccc(-c2nc3ccccc3s2)cc1OC` came in with a TGI of 89.2 µM.

As for `COc1ccc2[nH]c(C(=O)N3CCN(C(=O)OCc4ccc5c(Cl)cc(Cl)c(O)c5n4)CC3)cc2c1`, the GI50 is 1.7 µM and the TGI came to 3.9 µM.

In the case of `CC(O)c1nc(C#N)c(N)o1` (stereo not given), the TGI was more than 100 µM.

Turning to `COc1cc2c(/C=C3\C(=O)Nc4ccccc43)c[nH]c2cc1C`, the GI50 is 1.45 µM and the TGI turned out to be 12.8 µM.

Take `N#Cc1c(NC(=S)Nc2ccc(Cl)cc2)sc2c1CCN(N1CCc3c(sc(NC(=S)Nc4ccc(Cl)cc4)c3C#N)C1)C2`: the TGI came to 47.5 µM.

As to `Nc1cc2c3c(cccc3c1)C(=O)N(CCN1CCCC1)C2=O`, the GI50 was 4.45 µM and the TGI turned out to be 29.2 µM.

In turn, `N#Cc1c(-c2ccc([N+](=O)[O-])cc2)c(C#N)c(=O)n(NS(=O)(=O)c2ccccc2)c1S` registered a TGI of more than 100 µM.

`Cc1n[nH]c2ccccc2c1=O` yielded a TGI of more than 100 µM.
